Test results as given in PubChem BioAssay AID1745845 (National Center for Advancing Translational Sciences (NCATS), 2022).
The campaign covered roughly 360,000 compounds. About 2,600 (0.72%) were called active. Inconclusive means that the source gave no clear call. Such entries were picked first, then a sample of the others. The call rests on the fitted dose curve; in most records, active means well fitted inhibition curve with a large enough effect; inconclusive means small, poorly fitted or top-dose-only effect; inactive means no such curve, though single readings can be large or run the other way. Where the call is inconclusive, the potency comes from a doubtful curve fit.

Test: Primary qHTS for Inhibitors of ATXN expression; further: nearly all actives have a fitted effect of over 55% in size
Settings: HEK-293 ATXN2-luciferase reporter, luminescence, 24 h; activity change, negative = inhibition: at 57 µM (top of the series)
How it was run: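 ATXN2-luciferase reporter cells (luciferase flanked by upstream and downstream ATXN2 gene portions) were treated 24 h at 37 °C with compounds at up to 57 uM. SteadyGlo luminescence gave expression; GF-AFC fluorescence gave viability.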
On the % scale 0 is the no-effect control and ±100 the full control effect; potency means the concentration at half of the fitted maximal effect; tags describe the fitted curve by direction and shape.

Row | SMILES | Potency | activity change, negative = inhibition
1 | Cn1nc(C2CC2)cc1NC(=O)C1(C)CCN1C(=O)Cc1ccc(-c2ccccc2)cc1 (centres undefined) | inconclusive: 28.2 µM [inhibitor, partial curve] | 
2 | O=C(Nc1cnc2ccccc2c1)c1cccnc1 |  | inactive: -10.2%
3 | Cc1cccc(NC(=S)/N=C(\N)Nc2nc(C)c3ccccc3n2)c1 |  | inactive: -21.4%
4 | Cc1ccc2[nH]c(=O)c(NC(N)=S)nc2c1 |  | inactive: -1.42%
5 | O=C(NCc1nc(-c2ccc(C(F)(F)F)cc2)no1)Nc1ccc(OC(F)(F)F)cc1 | inconclusive: 31.6 µM [inhibitor, single point] | 
6 | Cc1cc(NC(=O)c2ccc3c(c2)OCCO3)ccc1NC(=O)c1cc2ccccc2o1 | inconclusive: 22.4 µM [inhibitor, partial curve, poor fit] | 
7 | O=C(OCC(=O)N1CCN(C(=O)c2ccco2)CC1)c1cc(-c2ccc(Cl)c(Cl)c2Cl)nc2ccccc12 | inconclusive: 35.5 µM [inhibitor, single point] | 
8 | CCc1ccc2[nH]c(=O)c(CN(Cc3ccc4c(c3)OCO4)Cc3nnnn3C3CCCC3)cc2c1 | inconclusive: 39.8 µM [inhibitor, single point] | 
9 | CCOC(=O)c1ccc(N=c2sc(C(=O)OC)cc(=O)n2CCCN2CCOCC2)cc1 | inconclusive: 18.9 µM [inhibitor, partial curve, poor fit] | 
10 | CCN(CC)C(=O)Cn1c(=O)cc(C)c2c(C)nn(-c3ccc(C)cc3)c21 |  | inactive: 2.05%
11 | CCC(C)(C)c1ccc(Oc2ccc(NC(=O)COC(=O)C3=COCCO3)cc2)cc1 | inconclusive: 3.16 µM [inhibitor, full curve] | 
12 | C[C@@H]1CN([C@H](C)CO)C(=O)Cc2cc(NC(=O)Nc3ccccc3)ccc2O[C@@H]1CN(C)Cc1ccc2c(c1)OCO2 | inconclusive: 39.8 µM [inhibitor, single point] | 
13 | C[C@H](CO)N1C[C@H](C)[C@@H](CN(C)Cc2ccc(-c3ccccc3)cc2)Oc2c(NS(=O)(=O)c3cccs3)cccc2C1=O | inconclusive: 39.8 µM [inhibitor, partial curve, poor fit] | 
14 | NS(=O)(=O)c1ccc(Sc2nc3ccccc3s2)c([N+](=O)[O-])c1 | inconclusive: 11.2 µM [inhibitor, partial curve, poor fit] | 
15 | O=C(NC1CCCCC1)C(c1ccc(F)cc1)N(CCc1ccccc1)C(=O)CN1C(=O)c2ccccc2S1(=O)=O (centres undefined) | inconclusive: 5.62 µM [inhibitor, full curve] | 
16 | CCCCCCCNC(=O)C1(CC2CC(c3ccc(Cl)cc3)=NO2)CCN(C(=O)Cc2ccc(F)cc2)CC1 (centres undefined) |  | inactive: 0.206%
17 | N#Cc1ccc(OCC(=O)N2CCN(C(=O)c3ccco3)CC2)cc1 | inconclusive: 0.238 µM [inhibitor, partial curve, poor fit] | 
18 | COc1ccc(CNC(=O)CCSc2nc(-c3ccc4c(c3)OCO4)cc(C(F)(F)F)n2)cc1 | inconclusive: 20 µM [inhibitor, partial curve, poor fit] | 
19 | Cc1cccc(OCc2nnc(SCC(=O)N3c4ccccc4CCc4ccccc43)o2)c1 |  | inactive: -16.7%
20 | COc1ccc(-c2coc3cc4oc(=O)cc(C)c4cc23)cc1F | inconclusive: 4.47 µM [inhibitor, full curve] | 
21 | CCC(C)(C)n1nnnc1C(c1cccs1)N1CCc2ccccc21 (centres undefined) | inconclusive: 39.8 µM [inhibitor, single point] | 
22 | C=CC(=O)N1C/C(=C/c2ccccc2)C(=O)/C(=C\c2ccccc2)C1 | active: 6.7 µM | 

Row | SMILES | Potency | activity change, negative = inhibition
23 | COc1ccc(CCC(=O)Nc2cccc(S(=O)(=O)N3CCCCCC3)c2)cc1OC | inconclusive: 8.91 µM [inhibitor, full curve] | 
24 | O=C(COc1ccc(Cl)cc1)Nc1nnc(C2=COCCO2)o1 | inconclusive: 0.0075 µM [inhibitor, full curve, poor fit] | 
25 | Nc1ncnc(N)c1N=Nc1ccccc1 | inconclusive: 12.6 µM [inhibitor, partial curve, poor fit] | 
26 | Cc1ccc(C)c(N2CCN(C(=O)NCc3noc4ccc(C)cc34)CC2)c1 | inconclusive: 31.6 µM [inhibitor, single point] | 
27 | N=C(N)SCc1ccc(O)c([N+](=O)[O-])c1 |  | inactive: 5.29%
28 | COc1ccc(C(C)=O)cc1CSc1nnc(-c2ccc(Cl)cc2)n1-c1ccccc1 |  | inactive: -11.3%
29 | COc1ccc(CNC(=O)c2cn(Cc3ccccc3F)c(=O)s2)cc1 |  | inactive: -3.49%
30 | COc1ccc(-c2ccc3[nH]c4c(c3c2)CCN2C[C@H]3[C@H](C)ON(C)[C@H]3C[C@@H]42)cc1 | inconclusive: 39.8 µM [inhibitor, single point] | 
31 | Cc1nnc(N=c2ssnc2Cl)o1 | inconclusive: 0.631 µM [inhibitor, full curve] | 
32 | Cc1ccc(S(=O)(=O)Cc2ccc(C(=O)N3CCN(c4cccc(Cl)c4)CC3)o2)cc1 | inconclusive: 35.5 µM [inhibitor, single point] | 
33 | O=C(Cn1nc(C(F)(F)F)c2c1CCCC2)Nc1cccc(Cl)c1 | inconclusive: 39.8 µM [inhibitor, single point] | 
34 | COCC(C)n1c(SCc2ccc(OC)c(F)c2)nc2ccccc2c1=O (centres undefined) |  | inactive: -27.7%
35 | CCc1nc2c(OCC3CCCCC3)cccn2c1N(C=O)Cc1ccc(OC)cc1 | inconclusive: 25.1 µM [inhibitor, single point] | 
36 | Cc1ccc(-n2cc(CNCCn3nc(C)cc3C)c(-c3ccc(F)cc3)n2)cc1 | inconclusive: 35.5 µM [inhibitor, single point] | 
37 | N/N=C/C(=N\Nc1ccc(Cl)cc1)C(=O)c1ccncc1 |  | inactive: -19.5%
38 | CCOc1ccc(C2C(C(=O)Nc3ccccc3)=C(C)Nc3nc(-c4ccccc4Cl)nn32)cc1OC (centres undefined) |  | inactive: -8.31%
39 | COc1ccccc1-c1nnc2sc(COc3ccc(Cl)cc3)nn12 | inconclusive: 12.6 µM [inhibitor, partial curve, poor fit] | 
40 | CCN(Cc1ccccc1)C(=O)c1oc2ccc(S(=O)(=O)N3CCOCC3)cc2c1C |  | inactive: -14%
41 | COC(=O)C1=C(C)N(Cc2ccccc2)C(=NCC(C)C)N[C@H]1c1cccc(C(F)(F)F)c1 | inconclusive: 28.2 µM [inhibitor, single point] | 
42 | Cn1ccsc1=NC(=O)c1ccc([N+](=O)[O-])o1 |  | inactive: -4.51%
43 | COc1cccc(C(=O)Nc2ccc3nc(SCC(=O)N(C)c4ccccc4)sc3c2)c1 | inconclusive: 14.1 µM [inhibitor, partial curve] | 
44 | CCCNC(=O)c1cc2c(c(-c3cccc(-c4cc5ccccc5o4)c3)n1)[C@H](CCO)N(C(=O)NC(C)C)C2 | inconclusive: 11.2 µM [inhibitor, partial curve, poor fit] | 

Row | SMILES | Potency | activity change, negative = inhibition
45 | COc1ccc(C(=O)NC(=S)Nc2cc3oc4ccccc4c3cc2OC)cc1 |  | inactive: 1.54%
46 | Nc1c(C(=O)Nc2ccccc2Br)sc2nc(-c3cccs3)ccc12 | inconclusive: 39.8 µM [inhibitor, single point] | 
47 | CC(=O)Nc1ccc(OCC(O)CN2CCN(Cc3ccccc3)CC2)cc1 (centres undefined) |  | inactive: -6.09%
48 | CCN(CC)Cc1c(C(=O)N/N=C/c2c(Cl)cccc2Cl)nnn1-c1nonc1N |  | inactive: 0.354%
49 | CCCCCCCCC(=O)NNC(=O)c1c(O)c2ccccc2n(CC)c1=O | inconclusive: 33.6 µM [inhibitor, partial curve, poor fit] | 
50 | Cc1ccc2nc3c(cc(C(=O)NCC4CCCO4)c(=N)n3C3CCCC3)c(=O)n2c1 (centres undefined) | inconclusive: 28.2 µM [inhibitor, partial curve, poor fit] | 
51 | CCCCNc1c(-c2ccc(SC3CCCCC3)cc2)nc2cnccn12 | inconclusive: 39.8 µM [inhibitor, single point] | 
52 | CC(C)N(Cc1ccccc1)C(=O)c1nc(-c2ccc(Cl)cc2)n2c1CCCCC2 | inconclusive: 22.4 µM [inhibitor, partial curve, poor fit] | 
53 | N#Cc1cccc(-c2csc(C(O)(c3ccccc3)C(F)(F)F)n2)c1 (centres undefined) | inconclusive: 22.4 µM [inhibitor, single point] | 
54 | Oc1ccc(N=Nc2nccs2)c(O)c1 | inconclusive: 10 µM [inhibitor, partial curve, poor fit] | 
55 | CCOc1ccc2c(c1)C(=NNC(=O)c1ccncc1)c1cc(OCC)ccc1-2 | inconclusive: 8.44 µM [inhibitor, full curve, poor fit] | 
56 | O=c1c(-c2ccccc2)c(-c2ccccc2)oc2cc(O)cc(O)c12 | inconclusive: 37.7 µM [inhibitor, single point] | 
57 | COc1cc(C=CC(=O)c2ccccc2)cc(OC)c1OC | inconclusive: 31.6 µM [inhibitor, single point] | 
58 | COc1ccc(-c2cc(C(F)F)n3ncc(C(=O)n4ccnc4C)c3n2)cc1 |  | inactive: -37.8%
59 | CC1CCN(S(=O)(=O)c2ccc(C(=O)Nc3nnc(-c4ccco4)o3)cc2)CC1 | inconclusive: 20 µM [inhibitor, single point] | 
60 | COc1cc(CNn2c(C)n[nH]c2=S)cc(Br)c1OCC(=O)NC(C)(C)C | inconclusive: 2.99 µM [inhibitor, partial curve, poor fit] | 
61 | CC1CC=C(c2ccccc2)C(=S)N1 (centres undefined) |  | inactive: 1.15%
62 | COc1cccc(-c2c(C#N)c(N)nc3c2c(C)nn3-c2ccccc2)c1O | inconclusive: 12.6 µM [inhibitor, single point] | 
63 | C[C@H](O)[C@@H]1C(=O)N2CCc3ccc(-c4ccccc4)cc3[C@@H]2C[C@@H]1N(C)C(=S)Nc1ccc(F)cc1 | inconclusive: 39.8 µM [inhibitor, partial curve, poor fit] | 
64 | CCOC(=O)c1ccc(NC(=S)N2CCN(CCNC3=CC(=O)CC(C)(C)C3)CC2)cc1 |  | inactive: -14.9%
